Experimental data as given in PubChem BioAssay AID1346428 (National Center for Advancing Translational Sciences (NCATS), 2018).
The campaign covered roughly 48,000 compounds. About 1,200 (2.5%) were called active. Not shown: some 2% with an inconclusive outcome.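 How the source made its calls: active means activation of at least 60% and not above a set upper limit (about 1 call in 100 departs from these limits); inconclusive means activation of 40% to 60%, or above that upper limit; inactive means activation under 40%.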 The list shows a part of the results.
Further: 0% is about no effect.

Each molecule was assayed against Probable G-protein coupled receptor 32 (Homo sapiens) (UniProt O75388) (assay: qHTS for Agonists of Human Resolvin D1 Receptor DRV1). Conditions: CHO-K1 GPR32 beta-arrestin PathHunter luminescence, 90 min; at 76.9 µM; active compounds read high; zero percent set by DMSO-only wells.
Sequence of UniProt O75388 (O75388 whole entry, looked up): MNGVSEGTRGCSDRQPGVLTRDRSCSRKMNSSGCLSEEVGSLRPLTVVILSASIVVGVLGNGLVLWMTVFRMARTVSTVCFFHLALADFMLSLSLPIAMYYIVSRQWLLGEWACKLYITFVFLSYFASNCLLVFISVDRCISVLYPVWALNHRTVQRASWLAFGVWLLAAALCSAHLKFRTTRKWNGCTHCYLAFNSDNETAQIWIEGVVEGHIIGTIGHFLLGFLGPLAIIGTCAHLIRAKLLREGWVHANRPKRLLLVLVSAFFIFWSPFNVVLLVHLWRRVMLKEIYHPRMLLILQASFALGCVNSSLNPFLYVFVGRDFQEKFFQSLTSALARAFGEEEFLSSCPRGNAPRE
How it was run: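 Step 1: seed CHO-K1 GPR32 beta-arrestin cells, 2,500/well, overnight at 37 °C. Step 2: add compounds, 90 min at 37 °C. Step 3: detection reagent, 1 h ambient, then luminescence.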
For `CCCCOC(=O)c1ccc(NC(=O)CSc2nc3c(c(=O)[nH]2)CCC3)cc1`, the activation was inactive: -5.1%. For `CC(=O)c1ccc(N2CCN(c3ncnc4onc(-c5ccc(Cl)cc5)c34)CC2)cc1`, the activation was inactive: 3.33%. `COc1cc(-c2nc3cccc(C)n3c2Nc2ccc3c(c2)OCCO3)ccc1O` was tested, and the activation was active: 61.2%. With `COc1ccccc1CNC(=O)c1cccc(NC(=O)N2CCSc3ncccc32)c1` the activation was inactive: 8.09%. With `CCOc1ccccc1C(=O)NCC(c1ccc(N(C)C)cc1)N1CCc2ccccc21` (centres undefined) the activation was inactive: -37.5%. For `Oc1c(C(c2ccc(Cl)cc2)N2CCCC2)sc2nc(-c3ccco3)nn12` (centres undefined), the activation was inactive: 18.2%. For `CCOc1cc(-c2ccc(OC(=O)c3ccc(Cl)cc3)c(OC)c2)cc(=O)c2c(C)oc(C)c12`, the activation was inactive: -17.3%. With `Cc1c(C(=O)NCc2ccc(F)cc2)sc2nc(-c3ccccc3)cn12` the activation was inactive: -3.92%. With `Cc1nnc(N2C(=O)c3oc4ccccc4c(=O)c3C2c2ccc(F)cc2)s1` (centres undefined) the activation was inactive: 0.238%. For `COc1ccc(CCNC(=O)c2ccc(Cn3c(=O)c4ccccc4n(Cc4ccccc4Cl)c3=O)cc2)cc1OC`, the activation was inactive: -5.01%. In the case of `COC(=O)c1c(-c2ccc(Cl)cc2)noc1N1CCN(c2cccc(OC)c2)CC1`, the activation is reported as inactive: -12.3%. For `O=C1c2c(O)cccc2Cc2cccc(O)c21`, the activation was inactive: 47.1%. In the case of `Cc1ccc(C(=O)c2cn(Cc3cccc(F)c3)c3nc(C)ccc3c2=O)cc1`, the activation is reported as inactive: -2.73%. For `Cc1ccc(NC(=O)Cn2cc(C(=O)c3cccs3)c3ccccc32)cc1C`, the activation was inactive: -11.4%. With `O=C(CCSCc1cnn(-c2ccccc2)c1-n1cccc1)NCc1ccc(Cl)cc1` the activation was inactive: -12.4%. With `Cc1ccc(-n2c(=O)c3c(cnn3C)n(CC(=O)Nc3cc(C)ccc3C)c2=O)cc1` the activation was inactive: 9.43%. For `O=C(CCn1cccn1)Nc1cccc(C(F)(F)F)c1`, the activation was inactive: -2.25%. `Cc1oc2ncnc(N3CCOCC3)c2c1C(=O)NCc1ccccc1` was tested, and the activation was inactive: -1.56%. `COc1ccc(C(=O)NCc2ccc3c(c2)CCN3C(=O)c2cccc(C)c2)cc1OC` was tested, and the activation was inactive: -11%. In the case of `Cc1nc2sccn2c(=O)c1S(=O)(=O)N1CCN(c2ccc(F)cc2)CC1`, the activation is reported as inactive: -13.2%. For `COc1ccc(CCNC(=O)CSc2nc3ccccc3nc2Cc2ccc(Cl)cc2)cc1OC`, the activation was inactive: -9.83%. For `O=C(O)CCCC[P+](c1ccccc1)(c1ccccc1)c1ccccc1`, the activation was inactive: -9.91%. `CC(C)Cn1c(-c2ccc(S(=O)(=O)N3CCCC3)cc2)csc1=Nc1ccccc1` was tested, and the activation was inactive: 41.8%. With `CCCN(Cc1cccs1)C(=O)Nc1ccc(Br)c(C)c1` the activation was inactive: -1.83%.
